Test results published in the supplement of paper PMC8047034.
Structures can show the parent of a compound that is named as a salt. This is one part of the list. Most values come without repeats; read them as rough.

Test system: Ov4Carbo
Test: log2 surviving fraction (library drug vs vehicle, or drug + carboplatin vs carboplatin alone; relative to plate median); ovarian cancer lines: OVCAR4 is platinum-sensitive and Ov4Carbo platinum-resistant; higher = more cell survival
Settings: library drug concentration 10 µM; 7 days; carboplatin co-treatment 5 µM

SMILES | log2 surviving fraction
CC(C)[C@H]1CC[C@H](C(=O)N[C@H](Cc2ccccc2)C(=O)O)CC1 [Nateglinide (Starlix)] | 0.138
Nc1c(CC(=O)O)cccc1C(=O)c1ccccc1 [Amfenac Sodium (monohydrate)] | 0.804
c1ccc2nc(N3CCNCC3)ccc2c1 [Quipazine Maleate] | 0.33
OC(c1ccccc1)(c1ccccc1)C1CCNCC1 [Azacyclonol] | -1.25
C#C[C@]1(O)CC[C@H]2[C@@H]3CCC4=CC(=O)CC[C@@H]4[C@H]3CC[C@@]21C [norethindrone] | 0.478
CC[C@H]1OC(=O)[C@H](C)[C@@H](O[C@H]2C[C@@](C)(OC)[C@@H](O)[C@H](C)O2)[C@H](C)[C@@H](O[C@@H]2O[C@H](C)C[C@H](N(C)C)[C@H]2O)[C@](C)(OC)C[C@@H](C)C(=O)[C@H](C)[C@@H](O)[C@]1(C)O [Clarithromycin (Biaxin, Klacid)] | 0.332
CCCCC(=O)O[C@]1(C(=O)CO)[C@@H](C)C[C@H]2[C@@H]3CCC4=CC(=O)C=C[C@]4(C)[C@@]3(F)[C@@H](O)C[C@@]21C [Betamethasone valerate (Betnovate)] | 0.934
CN(C)CCCSC(=N)N [Dimaprit 2HCl] | -0.00861
CC(NCCc1ccc(O)cc1)C(O)c1ccc(O)cc1 (stereo not given) [Ritodrine hydrochloride (Yutopar)] | 0.0177
c1ccc2c(CC3=NCCN3)cccc2c1 [Naphazoline hydrochloride (Naphcon)] | -0.0479
COCCCC/C(=N\OCCN)c1ccc(C(F)(F)F)cc1 [Fluvoxamine maleate] | -2.82
CN(C)C(=O)C(CCN1CCC(O)(c2ccc(Cl)cc2)CC1)(c1ccccc1)c1ccccc1 [Loperamide hydrochloride] | -4.52
CN(C)CCc1c[nH]c2ccc(Cn3cncn3)cc12 [Rizatriptan Benzoate (Maxalt)] | 0.364
CC(=O)Oc1ccccc1C(=O)Nc1ncc([N+](=O)[O-])s1 [Nitazoxanide (Alinia, Annita)] | -0.948
CC(C)c1c(C(=O)Nc2ccccc2)c(-c2ccccc2)c(-c2ccc(F)cc2)n1CC[C@@H](O)C[C@@H](O)CC(=O)O [Atorvastatin calcium (Lipitor)] | -2.22
O=C(CCCN1CC=C(n2c(=O)[nH]c3ccccc32)CC1)c1ccc(F)cc1 [Droperidol] | 0.728
CCn1cc(C(=O)O)c(=O)c2cc(F)c(N3CCNC(C)C3)c(F)c21 (stereo not given) [Lomefloxacin hydrochloride (Maxaquin)] | 0.348
CNC(=O)Oc1ccc2c(c1)[C@]1(C)CCN(C)[C@@H]1N2C [Physostigmine Hemisulfate Salt] | -0.033

SMILES | log2 surviving fraction
CCCC(CCC)C(=O)O[C@H]1C[C@H]2CC[C@@H](C1)[N+]2(C)C [Anisotropine Methylbromide] | 0.36
CC(CN(C)C)CN1c2ccccc2CCc2ccccc21 (stereo not given) [Trimipramine Maleate] | -1.93
Clc1ccc(CCC(Cn2ccnc2)Sc2c(Cl)cccc2Cl)cc1 (stereo not given) [Butoconazole nitrate] | -2.75
Cl.N=C(N)NCCC[C@H](N)C(=O)O [L-Arginine HCl] | -0.42
CN1CCN(c2cc3c(cc2F)c(=O)c(C(=O)O)cn3-c2ccc(F)cc2)CC1 [Difloxacin HCl] | -0.116
Cn1c([N+](=O)[O-])cnc1COC(N)=O [Ronidazole] | -0.557
O=c1ccn([C@@H]2O[C@H](CO)[C@@H](O)[C@H]2O)c(=O)[nH]1 [Uridine] | -0.226
CC=CC1=C(C(=O)O)N2C(=O)[C@@H](NC(=O)[C@H](N)c3ccc(O)cc3)[C@H]2SC1 [Cefprozil hydrate (Cefzil)] | -0.458
O=c1[nH]c(=O)n([C@H]2C[C@H](O)[C@@H](CO)O2)cc1I [Idoxuridine] | -1.93
COc1cc(C)c(/C=C/C(C)=C/C=C/C(C)=C/C(=O)O)c(C)c1C [Acitretin] | -1.44
Cc1c(N(C)C)c(=O)n(-c2ccccc2)n1C [Amidopyrine] | 0.335
CN1CCc2cc3c(cc2C1O)OCO3 (stereo not given) [Hydrastinine HCl] | -0.164
CCCCCCCCCCCCCCCCO [1-Hexadecanol] | -0.409
C[C@@H]1CC(=O)NN=C1c1ccc(NN=C(C#N)C#N)cc1 [Levosimendan] | 0.239
CO[C@H]1/C=C/O[C@@]2(C)Oc3c(C)c(O)c4c(O)c(c5c(nc6cc(C)ccn65)c4c3C2=O)NC(=O)/C(C)=C\C=C\[C@H](C)[C@H](O)[C@@H](C)[C@@H](O)[C@@H](C)[C@H](OC(C)=O)[C@@H]1C [Rifaximin (Xifaxan)] | -0.0841
O=C(O)c1cc(/N=N/c2ccc(S(=O)(=O)Nc3ccccn3)cc2)ccc1O [Sulfasalazine (Azulfidine)] | 0.372
Cc1cccc(Nc2ccccc2C(=O)O)c1C [Mefenamic acid] | -1.39
